Data on 89 compounds can be found in PubChem BioAssay AID463173 (ICCB-Longwood Screening Facility, Harvard Medical School, 2010).

In all, about 52,000 compounds went through this assay and about 4,300 (8.3%) were called active. Rule as the data show it: active = survival mostly below about 52% (no sharp cut-off); inactive = mostly above about 56%. The list shows a part of the results.

This assay relates to DeltatarO mutant. Put plainly: S. aureus survival, RN4220 and DeltatarO strains – OD600, teichoic acid synthesis inhibitors, primary screen (AID 463173). The conditions noted are these: S. aureus RN4220 wild type/DeltatarO growth, OD600, 18 h, hits give low values, screened at 18.75 µg/mL (by protocol).
Regarding `Fc1ccc(-n2ncc3c(Nc4ccc5c(c4)OCCO5)ncnc32)cc1`, the survival is inactive: 97%. Next, `Cc1ccc(Nc2sc(C(=O)c3ccccc3)c(N)c2S(=O)(=O)c2ccccc2)cc1Cl`: inactive: 88%; `CCc1ccc(CNC(=O)Cn2nc(-c3ccc(C)cc3)ccc2=O)cc1`: inactive: 106%; `Cc1nc2ccccn2c1C(=O)OCC#N`: inactive: 102%. As for `Cc1cc(S(=O)(=O)N(C)CCc2ccccc2)ccc1-n1cnnn1`, the figure is inactive: 61%; as for `COc1ccccc1N1CCN(C(=O)CCS(=O)(=O)c2ccc3c(c2)oc(=O)n3C)CC1`, inactive: 83%; as for `FC(F)(F)c1cccc(C(c2nnnn2Cc2ccccc2)N(Cc2ccco2)CC2CCCO2)c1` (centres undefined), inactive: 105%. As for `CC(C)Oc1ccc(C(=O)N(Cc2ccc(N(C)C)cc2)C2CCS(=O)(=O)C2)cc1` (centres undefined), the figure is inactive: 54%; as for `N#Cc1cc2c(nc1SCC(=O)N1CCOCC1)CCC2`, inactive: 97%. With `CCOc1cccc(CNC(=O)c2ccc(N3CCCC3)c(NC(=O)NCc3ccccc3)c2)c1`, the survival was inactive: 78%. Next, `Cc1ccccc1CNC(=O)CCS(=O)(=O)c1cc2c3c(c1)CCN3C(=O)CC2`: inactive: 113%. As for `COc1ccc(Cl)cc1NC(=O)Cn1ccn(-c2cc(C)cc(C)c2)c(=O)c1=O`, the figure is inactive: 71%. As for `CCOC(=O)C1CCN(C2CC(=O)N(c3ccc(NC(C)=O)cc3)C2=O)CC1` (centres undefined), the figure is inactive: 70%; as for `CSc1nnc(C2CCCN(CC(=O)NC3CCCCC3C)C2)n1C` (centres undefined), inactive: 75%. In the case of `O=C(CN1C(=O)CC(c2ccccc2)=Nc2ccccc21)Nc1ccc(Br)cc1`, the survival is inactive: 124%. For `CNC(=O)c1ccc2c(c1)N(Cc1cc(C)ccc1C)C(=O)c1ccccc1S2`, the survival is inactive: 85%. As for `COc1ccc(-c2noc(CSc3nnc(C)n3-c3cccc(C)c3)n2)cc1`, the survival was inactive: 58%. Next, `COc1cc(C(=O)NCCc2csc(-c3ccc(Cl)cc3)n2)cc(OC)c1OC`: inactive: 94%.

Take `COc1ccc(O)c(C2=Nc3ccccc3N=C(c3ccccc3)C2)c1`: the survival is inactive: 123%.

On to `CCOC(=O)N1CCN(C(=O)c2cnn3c(C(F)(F)F)cc(-c4cccc(OC)c4)nc23)CC1`, for which the survival is inactive: 68%. Take `CCOC(=O)c1nc(Nc2ccc(C(=O)OC(C)C)cc2)c2ccccc2n1`: the survival is inactive: 68%. As for `Cc1cc(C=C(C#N)C#N)c(C)n1-c1ccccc1`, the figure is inactive: 98%. Next, `CCOC(=O)C1=C(C)N(C2CCCCC2)C(=O)C1`: inactive: 98%. For the compound `COc1ccc(C2c3c(n(C)c4ccccc34)C(=O)N2CC(=O)Nc2cccc(Cl)c2)cc1` (centres undefined), the survival is inactive: 80%.

Consider `CCOC(=O)c1c(NC(=O)CSc2cn(CCNC(=O)c3ccc(OC)cc3)c3ccccc23)sc2c1CCCC2`, for which the survival is inactive: 76%.

Consider `COc1ccc(CNC(=O)c2ccc(-c3nc(CSc4ccc(C)cc4)c(C)o3)cc2)c(OC)c1`, for which the survival is active: 6%. As for `CCCN1CCN(C(=O)Cn2c(-c3cccs3)cc3cc(F)ccc32)CC1`, the figure is inactive: 95%; as for `Cc1ccc2c(c1)N(C(=O)Nc1cccc3c1CCCC3)CCO2`, inactive: 86%; as for `O=C(NCCc1ccccc1)c1ccc(Nc2nc3ccccc3n3nnnc23)cc1`, inactive: 79%. As for `CN(Cc1ccccc1)c1ccc(-c2nc(-c3ccncc3)no2)cc1[N+](=O)[O-]`, the figure is inactive: 63%; as for `Cc1cc(C)cc(C(=O)NCC(c2ccc(N(C)C)cc2)N2CCCC2)c1` (centres undefined), inactive: 95%. Next, `COc1cccc(NC(=O)C2CCCN(S(=O)(=O)c3cccc4nonc34)C2)c1` (centres undefined): inactive: 90%; `Cc1cn2c(=O)c(S(=O)(=O)Nc3ccc(F)cc3F)c(C)nc2s1`: inactive: 94%.

On to `O=C(NCCC1=CCCCC1)C1CCN(C(=O)N2CCOc3ccc(Cl)cc32)CC1`, for which the survival is active: 47%. As for `CCOC(=O)CC(NC(=O)CCc1c(C)nc2ncnn2c1C)c1ccc(C)cc1` (centres undefined), the survival was inactive: 88%. Next, `CCOc1ccc(C(=O)NCCc2csc(-c3cccc(F)c3)n2)cc1OCC`: inactive: 115%. Turning to `CN1Cc2ccccc2CC1C(=O)O` (centres undefined), the survival was inactive: 100%. `COc1ccc(C(=O)Nc2ccc3c(c2)CCCN3S(=O)(=O)c2ccc(C)cc2)c(OC)c1`: the survival was inactive: 67%. Next, `O=C(O)c1ccccc1C(=O)NC1=NN(c2ccccc2)CC1`: inactive: 73%. As for `CCc1ccc(S(=O)(=O)c2cn(C)c3cc(N4CCCC4)c(F)cc3c2=O)cc1`, the figure is inactive: 78%; as for `COc1ccc(S(=O)(=O)N2CCN(Cc3nc4ccc(C)cc4o3)CC2)cc1`, inactive: 84%; as for `CC1Cc2ccccc2N1C(=O)Cn1c(-c2cccnc2)ccc(C#N)c1=O` (centres undefined), inactive: 87%. Next, `O=C(Cn1c(=O)n(Cc2nc(-c3ccccc3)no2)c(=O)c2ccccc21)Nc1cccc(Cl)c1`: inactive: 80%; `Cc1ccc(C)c(Nc2nnc(-c3ccc(C)c(S(=O)(=O)NCC4CCCO4)c3)c3ccccc23)c1` (centres undefined): inactive: 72%. `O=C1CCc2cc(S(=O)(=O)NC(C(=O)Nc3cccc(F)c3)c3ccccc3)ccc2N1` (centres undefined): the survival was inactive: 94%. As for `COc1ccc(-c2c(C)c3ccc(O)c(CN4CCCC(C)C4)c3oc2=O)cc1OC` (centres undefined), the figure is inactive: 74%; as for `CC(C)C1Oc2cc3oc(=O)ccc3cc2/C1=N\NC(N)=S` (centres undefined), inactive: 111%; as for `CCOc1ccc(N2C(=O)c3[nH]nc(-c4ccc(OC)cc4)c3C2c2cccs2)cc1` (centres undefined), inactive: 68%. Next, `COc1ccc(-c2nnc(SCC(=O)Nc3ccc(C)c(C)c3)s2)cc1`: inactive: 79%; `Oc1ccccc1Nc1nc2ccccc2n2nnnc12`: inactive: 80%; `O=C(NCc1ccc(Cl)cc1)c1ccc(Cn2c(=O)c3cccn3c3cccnc32)cc1`: inactive: 49%. Next, `O=C1NC(NS(=O)(=O)c2ccccc2)(C(F)(F)F)C(=O)N1c1ccc(F)cc1` (centres undefined): inactive: 81%. As to `Cc1cc(N2CCC(C(=O)N(CC(C)C)CC(C)C)CC2)n2nc(C)c(-c3ccc(Cl)cc3)c2n1`, the survival is inactive: 83%. As for `CCc1ccccc1NC(=O)CCCN1C(=O)CCn2nc(-c3cn(C)c4ccccc34)cc21`, the figure is inactive: 130%; as for `COc1cc(Nc2nc(SCc3ccccc3Cl)nc3ccccc23)cc(OC)c1`, inactive: 101%. Next, `COc1cccc(NC(=O)c2oc3ccccc3c2NC(=O)C2CCCCC2)c1`: inactive: 66%. As for `COc1ccc(C(=O)/C=C/c2cn(CC(O)CN3CCc4ccccc43)c3ccccc23)cc1` (centres undefined), the figure is inactive: 58%; as for `S=c1sc2ccccc2n1CN1CCCCC1`, inactive: 95%; as for `CCOCc1cc(CN2CCN(c3ccccc3OC)CC2)c(O)c2ncccc12`, inactive: 109%. In the case of `COC(=O)c1cc(NC(=O)c2cc3sccc3n2Cc2ccc(Cl)cc2)cc(C(=O)OC)c1`, the survival was inactive: 84%. Consider `CCOc1ccc(NC(=O)CSc2oc(-c3ccccc3)nc2S(=O)(=O)c2ccc(Cl)cc2)cc1`, for which the survival was inactive: 161%. As to `CCOC(=O)N1CCN(Cc2nc3cc(NC(=O)c4cccc(C)c4)ccc3n2C(C)C)CC1`, the survival was inactive: 70%. Next, `Cn1c(CC(=O)Nc2ccccc2)n[nH]c1=S`: inactive: 82%.

`O=C(CCn1ccc2cc(S(=O)(=O)N3CCCC3)ccc21)NCc1ccccc1F`: the survival is inactive: 94%. Next, `Cc1ccc(S(=O)(=O)c2nnn3c2nc(NCc2cccs2)c2sccc23)cc1`: inactive: 128%; `CCn1nc(C)c2c(-c3ccccc3)cc(=O)n(C(C)C(=O)NCc3ccccc3OC)c21` (centres undefined): inactive: 75%. As for `O=C(c1cnn(-c2ccc(F)cc2)c1-n1cccc1)N1CCN(c2ccc(Cl)cc2)CC1`, the figure is inactive: 75%; as for `O=C(Cc1ccccc1)N=Nc1c(O)[nH]c2ccccc12`, inactive: 91%. For the compound `Cc1cc(C)cc(OCc2cc(=O)n3c(-c4ccccc4)csc3n2)c1`, the survival is inactive: 55%. Next, `COc1ccccc1C1C=C(c2ccc(C(C)C)cc2)Nc2nnnn21` (centres undefined): inactive: 79%; `Cc1cccc(CNC(=O)c2ccc3c(c2)c(C)c(C)n3Cc2ccccc2)c1`: inactive: 78%. Next, `COc1ccccc1NC(=O)Cn1c(=O)c(CNc2ccccc2)cc2cc(OC)c(OC)cc21`: inactive: 92%; `COc1cc(OC)cc(-c2nc3nc(C)c(CCC(=O)Nc4ccc(C)cc4C)c(C)n3n2)c1`: inactive: 74%.

As to `O=C1CCc2cc(S(=O)(=O)NCc3ccccc3Cl)cc3c2N1CC3`, the survival is inactive: 54%. Next, `CCOC(=O)c1ccc(NC(=O)NC2CC3CCC(C2)N3Cc2nnnn2Cc2ccco2)cc1` (centres undefined): inactive: 70%; `O=S(=O)(c1ccccc1)c1nnn2c1nc(NCc1ccc(Cl)cc1)c1sccc12`: inactive: 83%; `CCOC(=O)c1c(NC(=O)COc2cccc(C)c2C)sc(C(C)=O)c1C`: inactive: 130%. In the case of `COc1ccc(N2CCN(C(c3ccccc3F)c3sc4nc(-c5ccco5)nn4c3O)CC2)cc1` (centres undefined), the survival is inactive: 80%. `COc1ccc(Cl)cc1NC(=O)Cn1c(=O)c(-c2ccccc2NC(C)=O)nc2ccccc21`: the survival was inactive: 103%. In the case of `COC(=O)c1ccccc1NC(=O)Cn1c(=O)cc(C)c2c(C)nn(C)c21`, the survival was inactive: 82%. As for `Cc1cc(C)c2c(c1)c(C)cc1nnc(SCC(=O)c3ccc(F)cc3)n12`, the figure is inactive: 63%; as for `CCCCC(=O)N1CCc2cc(OC)c(OC)cc2C1COc1ccc(OC)cc1` (centres undefined), inactive: 102%.

For the compound `Fc1ccc(CSc2nncn2NCc2ccc3c(c2)OCO3)cc1`, the survival is inactive: 74%. In the case of `Cc1ccc(C)c(Cn2c(C(=O)O)c(CNCc3cccs3)c3ccccc32)c1`, the survival is inactive: 79%. As for `Cc1cccc(C(=O)Nc2ccc3nc(SCCOc4ccccc4)sc3c2)c1`, the figure is inactive: 85%; as for `COc1ccc(CCNc2nc(SCc3ccc(Cl)cc3)nc3ccccc23)cc1OC`, inactive: 95%.

Consider `Nc1ncc(S(=O)(=O)Nc2ccc(F)cc2F)cn1`, for which the survival is inactive: 84%.

With `COc1ccc(C2C=C(c3ccccc3)Nc3nc(NC(=O)/C=C/c4ccccc4Cl)nn32)cc1` (centres undefined), the survival was inactive: 96%. Regarding `CCc1cnc2c(c1SCC(=O)NCc1ccc(F)cc1)c(=O)n(C)c(=O)n2C`, the survival is inactive: 119%.
